In PubChem BioAssay AID743279 (National Center for Advancing Translational Sciences (NCATS), 2014):
The whole screen tested about 360,000 compounds, of which about 17,000 (4.7%) were called active. Inconclusive results, whose numbers are uncertain, are shown with a selection of clear calls. Rule as the data show it: active = activity change below about -50%; inconclusive = mostly about -30% to -49%; inactive = weaker than that.

experiment: qHTS for Inhibitors of Inflammasome Signaling: IL-1-beta AlphaLISA Primary Screen; conditions: THP-1 LPS/ATP IL-1B secretion, 16 h; at 57.5 µM, active compounds read low
How it was run: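 THP-1 cells pretreated 1 hr with compounds (up to 57.5 uM final), then stimulated with LPS (250 ng/mL final) plus ATP (1.25 mM final); secreted IL-1B measured by AlphaLISA after 16 hr, decreased signal indicating inhibition.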
% is scaled to controls: 0 for no effect and ±100 for the full control effect.

Activity change, inconclusive:
O=C(Nc1cc(S(=O)(=O)N2CCCCCC2)ccc1OCC(F)(F)F)c1ccc(=O)[nH]c1 -42.7%
COc1cc(C(=O)Sc2ccc(C)cc2)cc(OC)c1OC -41%
CCCCNC(=O)c1onc(CSc2ccccn2)c1C(=O)NCCCC -30.2%
Nn1c(SCc2ccccc2)nc2c(cnn2-c2ccccc2)c1=O -33.8%
CCN(CC)c1nc2ccccc2nc1C(C#N)C(=O)NCCCOC (configuration not stated) -46.9%
Cc1ccc(NC(=O)CN2CCc3cc4c(cc3C2C)OCCCO4)cc1C (configuration not stated) -30.4%
CCOc1cccc(-c2nnc3sc(C4CCCCC4)nn23)c1 -38.4%
CCOC(=O)c1sc(Nc2nc3c(OC)cccc3s2)cc1C -34.2%
Cc1ccc2sc(N(CCCN(C)C)C(=O)c3ccc(S(=O)(=O)N(C)C4CCCCC4)cc3)nc2c1C -34.2%
C/C(=N\Nc1ncc(Cl)cc1Cl)c1ccc(OC(F)F)cc1 -31.2%
CN1C(=O)/C(=C/c2ccc(C(=O)NC3CCCC3)cc2)Oc2ccccc21 -41.2%
O=C(c1ccco1)N1CCCC(c2nc3c(nnn3Cc3cccc(Cl)c3)c(=O)[nH]2)C1 (configuration not stated) -48.9%
COc1ccccc1NC(=O)CN1CCN(CC(=O)Nc2ccc(OCc3ccccc3)cc2)CC1 -42.1%
CCOC(=O)c1ccc(N2C=C(C(=O)OC)C(c3ccc(OC)c(O)c3)C(C(=O)OC)=C2)cc1 -38.5%
CCc1cc(-c2cnnn2Cc2ccccc2)ccc1-c1cn(CC(C)C)nn1 -41.6%
O=C(Nc1cccc2c1[nH]c(=O)c1ccccc12)C(F)(F)F -40.7%
NC(=O)C1CCN(CC(=O)Nc2ccccc2Sc2ccc(Cl)cc2)CC1 -49.4%
O=C1OC(c2ccccc2)(c2ccc3cc(O)ccc3c2)c2ccccc21 (configuration not stated) -45.4%
CCOc1ccc(-n2cnc3scc(-c4ccc(OC)c(OC)c4)c3c2=O)cc1 -32.2%
O=C(Nc1ccc2c(c1)nc1n2CCOC1)c1ccccc1 -35.5%
C=CCc1ccc(OCC(O)CN2CCC(Cc3ccccc3)CC2)c(OC)c1 (configuration not stated) -47.2%
O=C(NCCCCc1ccccc1)c1ccccc1Cl -39.8%
COc1ccc(-c2csc3ncn(-c4cccc(C)c4)c(=O)c23)cc1OC -33.4%
COc1ccc(C2CC(c3ccc(Cl)cc3)=NN2C(=O)c2cccc([N+](=O)[O-])c2)cc1 (configuration not stated) -44.2%
COc1cc(NC(=O)COc2ccc([N+](=O)[O-])cc2)ccc1NC(=O)c1ccco1 -38%
Cc1ccc(-c2cn3cccnc3n2)cc1NC(=O)c1ccc(Br)o1 -31.5%
CSc1ccc(S(=O)(=O)Nc2c(C)n(C)n(-c3ccccc3)c2=O)cc1 -39.1%
O=C(Cc1ccccc1)NCC(=O)OCC(=O)c1ccc(Cl)cc1 -30.1%
CNC(=S)N1CCc2cc(OC)c(OC)cc2C1COc1ccc(F)cc1 (configuration not stated) -48.8%
COc1ccc2[nH]c(=O)c(CN(Cc3cccnc3)S(=O)(=O)c3ccccc3F)cc2c1 -48.5%
Cc1ccc(-c2n[nH]c(=S)c3ccccc23)cc1S(=O)(=O)NCC1CCCO1 (configuration not stated) -42.8%
COc1ccc2c(CCNC(N)=S)c[nH]c2c1 -36.4%
CCCCNC(=O)N(C)c1nc2ccccc2s1 -31.2%
O=C(CSc1nc2ccccc2c(=O)n1-c1ccccc1)N/N=C/C=C/c1ccccc1[N+](=O)[O-] -40.7%
Cn1ccnc1SCC(=O)n1c2c(c3ccccc31)CCCC2 -35.9%
COc1ccc(/C=N/NC(=O)c2cc(-c3cccn3C)n[nH]2)cc1OC -33.4%
Cc1nn2c(c1-c1ccccc1)N=C(c1ccco1)CC2c1ccccc1 (configuration not stated) -30.6%
CN(C)CCN(Cc1ccccc1)S(=O)(=O)c1ccc(-c2ccc(=O)[nH]n2)s1 -46.3%
CCN(CC(=O)NCc1ccc(F)cc1)C(=O)/C=C/c1cccs1 -38.2%
Cc1ccc(S(=O)(=O)Nc2ccc(-n3c(C)nc4ccccc4c3=O)cc2)cc1 -36.6%
COc1ccc2[nH]c(C)c(CCNc3ccc(C(F)(F)F)cc3[N+](=O)[O-])c2c1 -45.1%
O=C(c1ccco1)n1nc(-c2ccccc2)nc1NCc1ccco1 -31.5%
N#Cc1ccc(C(=O)Nc2ccc(N3CCN(C(=O)c4ccco4)CC3)cc2)c(F)c1 -32.4%
COc1ccc(-c2nn(-c3ccccc3)cc2CN(C)CCn2ccnc2C)c(F)c1 -34.7%
O=S(=O)(c1ccccc1C(F)(F)F)N1CCN(CC(O)COc2ccccc2F)CC1 (configuration not stated) -47%
COc1ccc(CCN2C(=O)C(Oc3ccccc3C)C2c2ccc3c(c2)OCO3)cc1OC (configuration not stated) -32.4%
O=[N+]([O-])c1ccccc1OCCCNCc1ccccc1 -35.9%
Cc1ccc(S(=O)(=O)c2c(N)n(NC(=O)c3ccccc3C)c3nc4ccccc4nc23)cc1 -47%

Activity change, inactive:
COc1ccc(CN2CCNC(=O)C2CC(=O)NCc2cnn(C)c2)cc1OC (configuration not stated) -2.47%
Cn1c(=O)c2c(-c3ccccc3)n(CCCN3CCOCC3)cc2n(C)c1=O -5%
O=C(NCC(c1ccc(F)cc1)N1CCOCC1)c1ccc(OCc2ccccc2)cc1 (configuration not stated) -20.5%
COc1cccc2[nH]c3c(=O)n(CCCN4CCOCC4)cnc3c12 43.7%
CCOc1ncccc1C(=O)OCC(=O)c1cccs1 12.1%
O=C(CSc1ncccn1)N1CCN(C(c2ccccc2)c2ccccc2)CC1 9.26%
Cc1ccc(S(=O)(=O)CCc2nc3ccccc3s2)cc1C 31.8%
O=C(c1cc(C2CC2)on1)N1CCCC(N2CCN(c3ccc(F)cc3)CC2)C1 (configuration not stated) 1.49%
Cc1ccnc(NC(=S)NC(=O)/C=C/c2ccco2)c1 43.8%
C=CCSc1ncnc2c1oc1nc3c(cc12)COC(C)(C)C3 10.2%
Cc1ccc(CC(NC(=O)C2CCCCC2)C(=O)O)cc1 (configuration not stated) 49.2%
O=C(Cc1c(Cl)cccc1Cl)OCC(=O)N1CCN(C(=O)c2ccco2)CC1 40.2%
COc1ccc2[nH]c(C(=O)NCc3ccccc3)cc2c1 -1.92%
Cc1ccc2nc(-c3cccnc3)cc(C(=O)N3CCN(c4ccc([N+](=O)[O-])cc4)CC3)c2c1 9.79%
CCOc1ccc(Nc2ccc(N3C(=O)CCC3=O)cc2[N+](=O)[O-])cc1 -4.74%
CC(=O)Nc1ccc(NC(=O)CN(C)S(=O)(=O)c2ccc3nc(C)sc3c2)cc1 -2.91%
CNC(=S)NNC(=O)Cc1ccc(OC)cc1 2.01%
C/C(=N\NC(=O)c1cccc(S(=O)(=O)N2CCCC2)c1)c1ccc(C)cc1 7.07%
CCCc1cc(=O)oc2cc(C)cc(OCC(=O)Nc3ccc(S(N)(=O)=O)cc3)c12 12.8%
CCOC1=C2[C@@H](CN(S(=O)(=O)c3ccc(C)cc3)[C@H]2c2cccc3ccccc23)[C@H]2C(=O)NC(=O)[C@H]2C1 2.27%

Activity change, active:
Cc1cc(C)c(OCCNCc2ccccc2)c(C)c1 -54.3%
CC(=O)Nc1sc(C)c(C)c1C(=O)OCC(=O)Nc1cccc(C)c1 -59.3%
Cc1ccc(N(CC(=O)NCCc2ccc(F)cc2)S(=O)(=O)c2ccc(Cl)c([N+](=O)[O-])c2)c(C)c1 -95.7%
O=C(c1cc(-c2ccncc2)nc2ccc(Br)cc12)N1CCN(Cc2ccc3c(c2)OCO3)CC1 -62.9%
CCn1c(=O)oc2cc(NC(=O)CCl)ccc21 -99.8%
CCN(CC)CCN1C(=O)/C(=C\c2ccc(Cl)c([N+](=O)[O-])c2)SC1=Nc1ccc(OC)cc1 -99.1%
CCOc1ccc(CCN2C(=S)N([C@@H](Cc3ccc(O)cc3)CN3CCCC3CN3C(=S)NC[C@@H]3Cc3ccc(O)cc3)C[C@@H]2CC(C)C)cc1 (some centres not stated) -69.4%
O=C(COC(=O)CNC(=O)c1ccc([N+](=O)[O-])o1)Nc1ncc(Cl)cc1Cl -92.2%
CCCN(CCC)CC(O)CN1C(=O)N(CN2C(=O)N(CC(O)CN(CCC)CCC)C(=O)C2(C)C)C(C)(C)C1=O (configuration not stated) -65.3%
CC(C)[C@H](NS(=O)(=O)c1ccccc1)C(=O)OCC(=O)N1N=C(c2ccc(Cl)cc2)CC1c1ccco1 (some centres not stated) -71.7%
C[C@@H]1CCCCO[C@H](CN(C)Cc2ccccc2)[C@@H](C)CN([C@H](C)CO)C(=O)c2cc(NS(=O)(=O)c3ccc(Cl)cc3)ccc2O1 -50.8%
O=C(c1ccc(C(F)(F)F)cc1)N1CCC(=O)N(C(COCc2ccc(Cl)cc2)Cc2ccccc2)CC1 (configuration not stated) -60.8%
Cc1ccc(C)c(-c2ccc(=O)n(Cc3cccc(Br)c3)n2)c1 -97.6%
COCCNC(=O)/C(C#N)=C/c1cc(C)n(-c2ccc(C)cc2)c1C -94.4%
